A word on the inhibition: it is the relative decrease from the control value, in per cent.

The list shows a part of the results, in another mix than the full data.

The first assay concerns the target Casein kinase II subunit alpha (Homo sapiens) (UniProt P68400). To be noted: at 1 µM.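 Note: reported value is the mean CK2 inhibition.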
UniProt P68400, sequence (P68400 whole entry, looked up): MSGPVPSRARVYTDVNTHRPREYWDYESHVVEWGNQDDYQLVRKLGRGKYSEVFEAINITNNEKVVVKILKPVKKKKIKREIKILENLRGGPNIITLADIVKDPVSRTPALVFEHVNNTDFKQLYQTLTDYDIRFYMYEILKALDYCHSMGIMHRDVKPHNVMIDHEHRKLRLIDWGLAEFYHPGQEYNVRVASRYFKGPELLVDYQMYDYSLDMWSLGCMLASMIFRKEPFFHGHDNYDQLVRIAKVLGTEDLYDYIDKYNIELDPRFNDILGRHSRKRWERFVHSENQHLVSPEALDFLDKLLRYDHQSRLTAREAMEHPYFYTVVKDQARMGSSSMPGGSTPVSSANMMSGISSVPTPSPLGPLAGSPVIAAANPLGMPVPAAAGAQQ
Take `COc1ccccc1Oc1nccc(-c2c(-c3ccc(F)cc3)ncn2C2CCNCC2)n1`: the inhibition amounted to 5.8%.
`Fc1ccc(Oc2nccc(-c3c(-c4ccc(F)cc4)ncn3C3CCNCC3)n2)cc1`: the inhibition amounted to 2.41%.
Take `Fc1ccc(-c2ncn(C3CCNCC3)c2-c2ccnc(Oc3ccc(Cl)cc3)n2)cc1`: the inhibition turned out to be 0.7%.
Same read-out and setting: in the case of `O=C1NC(=O)C(c2cccc([N+](=O)[O-])c2)=C1Nc1cc(Cl)c(O)c(Cl)c1` it was -1.15%; in that of `O=C(O)c1ccc(Oc2nccc(-c3c(-c4ccc(F)cc4)ncn3C3CCNCC3)n2)cc1`, 3.61%.
In the case of `CC(C)(C)c1ccc(Oc2nccc(-c3c(-c4ccc(F)cc4)ncn3C3CCNCC3)n2)cc1`, the inhibition was 4.18%.
With `O=C1NC(=O)C(c2ccccc2Cl)=C1Nc1cc(Cl)c(O)c(Cl)c1`, the inhibition was 10.8%.
Consider `COc1ccccc1C1=C(Nc2ccccc2)C(=O)NC1=O`, for which the inhibition came out at 9.2%.
As to `Cc1cccc(Oc2nccc(-c3c(-c4ccc(F)cc4)ncn3C3CCNCC3)n2)c1C`, the inhibition is 5.25%.
For `NC(=O)CCc1ccccc1Oc1nccc(-c2c(-c3ccc(F)cc3)ncn2C2CCNCC2)n1`, the inhibition is -0.73%.
Turning to `O=C1NC(=O)C(c2ccccc2)=C1Nc1ccccc1`, the inhibition was 4.84%.
`Fc1ccc(-c2ncn(C3CCNCC3)c2-c2ccnc(Oc3cccc(C(F)(F)F)c3)n2)cc1`: the inhibition was found to be 6.22%.
Still for that read-out and setting: in the case of `CS(=O)(=O)c1ccc(Oc2nccc(-c3c(-c4ccc(F)cc4)ncn3C3CCNCC3)n2)cc1` it was 1.78%.
Turning to `Fc1ccc(-c2ncn(C3CCNCC3)c2-c2ccnc(Oc3cccc(F)c3)n2)cc1`, the inhibition turned out to be 8.56%.

A further assay has as its target T1, Inhibitor of nuclear factor kappa-B kinase subunit alpha (Homo sapiens) (UniProt O15111).
T1 sequence (whole entry): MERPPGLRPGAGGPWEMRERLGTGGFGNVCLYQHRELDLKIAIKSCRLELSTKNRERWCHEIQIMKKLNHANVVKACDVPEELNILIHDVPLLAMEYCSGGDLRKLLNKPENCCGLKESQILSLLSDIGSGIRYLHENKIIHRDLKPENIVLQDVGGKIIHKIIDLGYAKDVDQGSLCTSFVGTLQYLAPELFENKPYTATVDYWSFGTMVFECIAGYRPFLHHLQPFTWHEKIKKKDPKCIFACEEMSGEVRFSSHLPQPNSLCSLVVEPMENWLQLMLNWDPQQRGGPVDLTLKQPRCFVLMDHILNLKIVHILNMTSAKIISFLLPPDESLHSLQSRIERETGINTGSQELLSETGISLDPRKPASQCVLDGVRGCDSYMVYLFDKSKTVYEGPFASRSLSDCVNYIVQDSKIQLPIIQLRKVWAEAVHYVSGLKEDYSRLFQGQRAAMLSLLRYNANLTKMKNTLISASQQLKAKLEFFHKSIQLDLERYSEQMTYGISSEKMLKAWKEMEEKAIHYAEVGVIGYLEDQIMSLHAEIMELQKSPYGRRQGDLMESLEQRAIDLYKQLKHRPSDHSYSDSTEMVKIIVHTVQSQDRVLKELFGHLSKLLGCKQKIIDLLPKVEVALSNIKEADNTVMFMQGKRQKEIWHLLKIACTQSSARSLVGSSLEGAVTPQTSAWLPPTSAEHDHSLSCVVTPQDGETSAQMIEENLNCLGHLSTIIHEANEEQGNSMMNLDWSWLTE
To be noted: at 0.1 µM.
With `COc1ccccc1Oc1nccc(-c2c(-c3ccc(F)cc3)ncn2C2CCNCC2)n1`, the inhibition turned out to be 3.94%.
Same read-out and setting: in the case of `Fc1ccc(Oc2nccc(-c3c(-c4ccc(F)cc4)ncn3C3CCNCC3)n2)cc1` it was 4.61%.
As to `Fc1ccc(-c2ncn(C3CCNCC3)c2-c2ccnc(Oc3ccc(Cl)cc3)n2)cc1`, the inhibition is -5.26%.
The same measure, in the same setting: in the case of `O=C1NC(=O)C(c2cccc([N+](=O)[O-])c2)=C1Nc1cc(Cl)c(O)c(Cl)c1` it was 0.56%; in that of `O=C(O)c1ccc(Oc2nccc(-c3c(-c4ccc(F)cc4)ncn3C3CCNCC3)n2)cc1`, 2.54%; in that of `CC(C)(C)c1ccc(Oc2nccc(-c3c(-c4ccc(F)cc4)ncn3C3CCNCC3)n2)cc1`, 2.01%.
On to `O=C1NC(=O)C(c2ccccc2Cl)=C1Nc1cc(Cl)c(O)c(Cl)c1`, for which the inhibition is 9.08%.
As to `COc1ccccc1C1=C(Nc2ccccc2)C(=O)NC1=O`, the inhibition was -0.44%.
Still for that read-out and setting: in the case of `Cc1cccc(Oc2nccc(-c3c(-c4ccc(F)cc4)ncn3C3CCNCC3)n2)c1C` it was -2.99%; in that of `NC(=O)CCc1ccccc1Oc1nccc(-c2c(-c3ccc(F)cc3)ncn2C2CCNCC2)n1`, 4.04%.
The same measure, in the same setting: in the case of `O=C1NC(=O)C(c2ccccc2)=C1Nc1ccccc1` it was 2.57%; in that of `Fc1ccc(-c2ncn(C3CCNCC3)c2-c2ccnc(Oc3cccc(C(F)(F)F)c3)n2)cc1`, 7.97%; in that of `CS(=O)(=O)c1ccc(Oc2nccc(-c3c(-c4ccc(F)cc4)ncn3C3CCNCC3)n2)cc1`, 6.95%.
Consider `Fc1ccc(-c2ncn(C3CCNCC3)c2-c2ccnc(Oc3cccc(F)c3)n2)cc1`, for which the inhibition was determined as 6.65%.

In a further assay the target is T1, Inhibitor of nuclear factor kappa-B kinase subunit alpha (Homo sapiens). Conditions: at 1 µM.
With `COc1ccccc1Oc1nccc(-c2c(-c3ccc(F)cc3)ncn2C2CCNCC2)n1`, the inhibition is 5.41%.
On to `Fc1ccc(Oc2nccc(-c3c(-c4ccc(F)cc4)ncn3C3CCNCC3)n2)cc1`, for which the inhibition was found to be 5.03%.
On the same count and under the same terms, in the case of `Fc1ccc(-c2ncn(C3CCNCC3)c2-c2ccnc(Oc3ccc(Cl)cc3)n2)cc1` it was -0.06%; in that of `O=C1NC(=O)C(c2cccc([N+](=O)[O-])c2)=C1Nc1cc(Cl)c(O)c(Cl)c1`, -1.55%; in that of `O=C(O)c1ccc(Oc2nccc(-c3c(-c4ccc(F)cc4)ncn3C3CCNCC3)n2)cc1`, 6.28%.
The same measure, in the same setting: in the case of `CC(C)(C)c1ccc(Oc2nccc(-c3c(-c4ccc(F)cc4)ncn3C3CCNCC3)n2)cc1` it was -4.85%.
Same read-out and setting: in the case of `O=C1NC(=O)C(c2ccccc2Cl)=C1Nc1cc(Cl)c(O)c(Cl)c1` it was 3.79%; in that of `COc1ccccc1C1=C(Nc2ccccc2)C(=O)NC1=O`, 0.8%.
Take `Cc1cccc(Oc2nccc(-c3c(-c4ccc(F)cc4)ncn3C3CCNCC3)n2)c1C`: the inhibition came out at 2.52%.
On to `NC(=O)CCc1ccccc1Oc1nccc(-c2c(-c3ccc(F)cc3)ncn2C2CCNCC2)n1`, for which the inhibition stood at 7.27%.
Turning to `O=C1NC(=O)C(c2ccccc2)=C1Nc1ccccc1`, the inhibition is 11.6%.
For the compound `Fc1ccc(-c2ncn(C3CCNCC3)c2-c2ccnc(Oc3cccc(C(F)(F)F)c3)n2)cc1`, the inhibition amounted to 4.69%.
Still for that read-out and setting: in the case of `CS(=O)(=O)c1ccc(Oc2nccc(-c3c(-c4ccc(F)cc4)ncn3C3CCNCC3)n2)cc1` it was 5.81%; in that of `Fc1ccc(-c2ncn(C3CCNCC3)c2-c2ccnc(Oc3cccc(F)c3)n2)cc1`, 10.1%.

The next assay concerns the target T2, Inhibitor of nuclear factor kappa-B kinase subunit beta (Homo sapiens) (UniProt O14920).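 Note: values are mean percent inhibition of IKKB, part of the GSK PKIS screening data.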
T2 sequence (whole entry): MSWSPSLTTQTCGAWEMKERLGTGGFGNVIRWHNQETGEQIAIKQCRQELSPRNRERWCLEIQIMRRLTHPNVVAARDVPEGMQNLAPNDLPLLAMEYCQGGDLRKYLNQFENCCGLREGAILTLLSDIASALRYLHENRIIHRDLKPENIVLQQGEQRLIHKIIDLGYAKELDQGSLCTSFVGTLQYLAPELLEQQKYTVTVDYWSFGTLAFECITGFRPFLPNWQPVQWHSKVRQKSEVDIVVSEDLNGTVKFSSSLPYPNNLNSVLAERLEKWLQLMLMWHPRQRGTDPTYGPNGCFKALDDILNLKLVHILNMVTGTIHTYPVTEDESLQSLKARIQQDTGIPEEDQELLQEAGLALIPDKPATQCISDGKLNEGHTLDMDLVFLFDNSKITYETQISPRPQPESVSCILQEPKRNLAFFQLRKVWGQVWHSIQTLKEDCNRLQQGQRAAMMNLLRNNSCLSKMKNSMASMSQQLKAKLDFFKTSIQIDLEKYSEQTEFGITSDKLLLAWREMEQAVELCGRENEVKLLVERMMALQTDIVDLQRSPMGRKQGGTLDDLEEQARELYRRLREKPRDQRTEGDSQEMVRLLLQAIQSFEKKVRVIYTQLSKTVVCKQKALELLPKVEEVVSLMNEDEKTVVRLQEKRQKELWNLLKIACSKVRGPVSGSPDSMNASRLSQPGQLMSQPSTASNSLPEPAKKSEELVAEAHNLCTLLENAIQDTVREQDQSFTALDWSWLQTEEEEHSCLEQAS
To be noted: at 0.1 µM.
In the case of `COc1ccccc1Oc1nccc(-c2c(-c3ccc(F)cc3)ncn2C2CCNCC2)n1`, the inhibition worked out at 6.53%.
Consider `Fc1ccc(Oc2nccc(-c3c(-c4ccc(F)cc4)ncn3C3CCNCC3)n2)cc1`, for which the inhibition worked out at 5.79%.
As for `O=C1NC(=O)C(c2cccc([N+](=O)[O-])c2)=C1Nc1cc(Cl)c(O)c(Cl)c1`, the inhibition came out at 5.43%.
Same read-out and setting: in the case of `O=C(O)c1ccc(Oc2nccc(-c3c(-c4ccc(F)cc4)ncn3C3CCNCC3)n2)cc1` it was 6.2%; in that of `CC(C)(C)c1ccc(Oc2nccc(-c3c(-c4ccc(F)cc4)ncn3C3CCNCC3)n2)cc1`, 7.15%.
As to `O=C1NC(=O)C(c2ccccc2Cl)=C1Nc1cc(Cl)c(O)c(Cl)c1`, the inhibition amounted to 3.9%.
`COc1ccccc1C1=C(Nc2ccccc2)C(=O)NC1=O`: the inhibition was determined as 3.89%.
`Cc1cccc(Oc2nccc(-c3c(-c4ccc(F)cc4)ncn3C3CCNCC3)n2)c1C`: the inhibition is 5.7%.
For `NC(=O)CCc1ccccc1Oc1nccc(-c2c(-c3ccc(F)cc3)ncn2C2CCNCC2)n1`, the inhibition is -0.01%.
For `O=C1NC(=O)C(c2ccccc2)=C1Nc1ccccc1`, the inhibition worked out at 6.52%.
Regarding `Fc1ccc(-c2ncn(C3CCNCC3)c2-c2ccnc(Oc3cccc(C(F)(F)F)c3)n2)cc1`, the inhibition is 8.46%.
Turning to `CS(=O)(=O)c1ccc(Oc2nccc(-c3c(-c4ccc(F)cc4)ncn3C3CCNCC3)n2)cc1`, the inhibition came out at 6.21%.
As for `Fc1ccc(-c2ncn(C3CCNCC3)c2-c2ccnc(Oc3cccc(F)c3)n2)cc1`, the inhibition amounted to 5.25%.

Source of the values: ChEMBL document CHEMBL1961873, “Compounds: GSK PKIS; Assays: Nanosyn kinase panel” (2012).
